# PubChem BioAssay (Tox21)
# Several values for one entry are separate records, joined by “and”; a condition that tells them apart may be missing. Equal entries are not always repeated. This list was built around the results that the source calls inconclusive (neither active nor inactive); the mix of calls is not that of the screen. A potency beside an inconclusive call is a rough fit, not a confirmed value. Activity calls are given as the source filed them. Unless noted, calls come from the whole dose curve.
# Legend:
# [1] = qHTS assay for small molecule agonists of the p53 signaling pathway (AID 651631); conditions: HCT-116 p53RE-bla reporter, beta-lactamase FRET ratio, 16 h; activation: at 73.3 µM (top of the series) unless noted; note: nearly all actives have a fitted effect of over 15% in size; for activation: % is set by controls: 0 for no effect and ±100 for the full control effect
# Summary of the method: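 Stably transfected HCT-116 cells (beta-lactamase behind p53 response elements) get compounds after a 5 h settling period; 16 h later at 37 °C, FRET substrate is loaded and fluorescence read after 2 h.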
# [2] = qHTS assay for small molecules that induce genotoxicity in human embryonic kidney cells expressing luciferase-tagged ATAD5 - cell viability (AID 651634); note: nearly all actives have a fitted effect of over 25% in size
# Summary of the method: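 Viability read: CellTiter-Fluor fluorescence, 30 min at 37C. Cells: HEK293T, luciferase-tagged ATAD5. Exposure: 15.5 hr, 37C, 5% CO2, compound or DMSO vehicle.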
# [3] = qHTS assay for small molecule disruptors of the mitochondrial membrane potential (AID 720635; active = well fitted inhibition curve with a large enough effect in the signal ratio in the repeat runs; inconclusive = weak or mixed curves, or effect the other way; the % refers to the signal ratio; for ratio activity, negative = MMP loss: % is set by controls: 0 for no effect and ±100 for the full control effect); conditions: HepG2 mitochondrial membrane potential, Mito-MPS dye ratio; ratio activity, negative = MMP loss: at 83.2 µM (top of the series) unless noted
# Summary of the method: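 HepG2 cells exposed to compound 1 hr at 37C, then Mito-MPS dye 30 min. Ratio read of aggregate (540/590 nm) versus monomer (490/535 nm) fluorescence.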
# [4] = target: Glucocorticoid receptor (Homo sapiens) (UniProt P04150); experiment: qHTS assay to identify small molecule agonists of the glucocorticoid receptor (GR) signaling pathway (AID 720691; active = well fitted activation curve with a large enough effect in the signal ratio in the repeat runs, not every such curve was filed as active; inconclusive = weak or mixed curves, or effect the other way; inactive = no such curve, though single readings can be large or run the other way; the % refers to the signal ratio); conditions: GR-bla HeLa, beta-lactamase reporter ratio, 18 h; activation: at 62.4 µM (top of the series) unless noted
# Summary of the method: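 qHTS in GR-bla HeLa cells: 4 h settling at 37 C/5% CO2, 18 h compound incubation at 37 C, 2 h LiveBLAzer B/G FRET substrate at room temperature, fluorescence intensity measured.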
# [5] = target: Glucocorticoid receptor (Homo sapiens) (UniProt P04150); experiment: qHTS assay to identify small molecule antagonists of the glucocorticoid receptor (GR) signaling pathway (AID 720692; active = well fitted inhibition curve with a large enough effect in the signal ratio in the repeat runs, not every such curve was filed as active; inconclusive = weak or mixed curves, or effect the other way; inactive = no such curve, though single readings can be large or run the other way; the % refers to the signal ratio); conditions: GR-bla HeLa, beta-lactamase FRET ratio, dexamethasone-stimulated, 18 h; activity change, negative = inhibition: at 58.5 µM (top of the series) unless noted
# Summary of the method: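 Inhibition of glucocorticoid signalling is measured in HeLa cells with a GRE-controlled beta-lactamase reporter; cells are co-treated with compound and 5 nM dexamethasone (final) for 18 h before FRET substrate readout.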
# Potency is the fitted concentration of half-maximal effect; tags give direction and shape of the fitted curve or compound fluorescence and quenching.
# UniProt P04150, sequence (P04150 whole entry, looked up): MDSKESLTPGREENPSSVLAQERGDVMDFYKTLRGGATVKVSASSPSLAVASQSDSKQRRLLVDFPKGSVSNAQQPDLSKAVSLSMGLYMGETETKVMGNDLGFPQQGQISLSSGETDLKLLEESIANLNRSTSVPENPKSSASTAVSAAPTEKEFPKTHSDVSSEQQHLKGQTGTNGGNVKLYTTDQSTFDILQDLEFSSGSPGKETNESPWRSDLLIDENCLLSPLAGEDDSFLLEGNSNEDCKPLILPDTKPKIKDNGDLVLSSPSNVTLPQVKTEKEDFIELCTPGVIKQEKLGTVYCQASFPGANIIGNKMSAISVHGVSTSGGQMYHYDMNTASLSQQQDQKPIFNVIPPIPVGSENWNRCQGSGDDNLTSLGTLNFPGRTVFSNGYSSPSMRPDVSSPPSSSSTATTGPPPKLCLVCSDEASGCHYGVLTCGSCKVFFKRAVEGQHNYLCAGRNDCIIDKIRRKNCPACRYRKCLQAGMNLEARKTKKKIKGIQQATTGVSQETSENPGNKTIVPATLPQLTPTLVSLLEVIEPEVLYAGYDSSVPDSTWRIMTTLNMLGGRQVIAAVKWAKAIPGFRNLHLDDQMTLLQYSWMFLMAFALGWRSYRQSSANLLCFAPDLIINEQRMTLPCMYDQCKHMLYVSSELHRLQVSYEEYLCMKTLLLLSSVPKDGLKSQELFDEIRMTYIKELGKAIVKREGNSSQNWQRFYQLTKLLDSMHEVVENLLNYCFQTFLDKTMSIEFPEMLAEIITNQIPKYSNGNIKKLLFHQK
smiles,measurement,setting,value
O=C(OCC(COC(=O)c1ccccc1)(COC(=O)c1ccccc1)COC(=O)c1ccccc1)c1ccccc1,Potency,[1],"inconclusive: 24.3 µM [cytotoxic, partial curve]"
same,Potency,[2],inactive
same,Potency,[3],active: 3.06 µM
same,Potency,[4],inconclusive: 21.8 µM [cytotoxic]
same,Potency,[5],"inconclusive: 43.6 µM [cytotoxic, partial curve]"
O=C(O)Cc1cc(I)c(Oc2ccc(O)c(I)c2)c(I)c1,Potency,[1],active: 4.52 µM and active: 24.3 µM
same,Potency,[2],"inconclusive: 68.6 µM [falling, single point]"
same,"ratio activity, negative = MMP loss",[3],inconclusive: 15.5% [at 39.1 µM]
same,Potency,[5],active: 9.1 µM and active: 3.47 µM
COc1ccccc1Oc1c(NS(=O)(=O)c2ccc(C(C)(C)C)cc2)nc(-c2ncccn2)nc1OCCO,Potency,[1],inactive
same,"ratio activity, negative = MMP loss",[3],inconclusive: -37.4%
CCC(C)(C)CC,Potency,[1],"inconclusive: 20.3 µM [falling, partial curve, poor fit]"
same,Potency,[3],"inconclusive: 28.6 µM [rising, partial curve, poor fit]"
COC(=O)CCC(=O)OC,activation,[1],inconclusive: 3.38% [at 95.1 µM]
same,"ratio activity, negative = MMP loss",[3],inconclusive: -27.4% [at 95.3 µM]
CCc1c(C(=O)NN2CCCCC2)nn(-c2ccc(Cl)cc2Cl)c1-c1ccc(Br)cc1,Potency,[1],"inconclusive: 24.3 µM [falling, partial curve]"
same,Potency,[3],active: 24.3 µM
C1COC1,activation,[1],inconclusive: 9.29%
same,Potency,[3],inactive
O=C(O)CNC(=O)c1ccc(CO)o1,Potency,[1],inactive
same,"ratio activity, negative = MMP loss",[3],inconclusive: 1.56%
ONc1ccccc1,Potency,[1],"inconclusive: 7.62 µM [falling, single point]"
same,Potency,[3],inconclusive: 76.2 µM [inhibitor]
CCO/C([O-])=N/c1c[n+](N2CCOCC2)no1,activation,[1],inconclusive: -1.17% [at 34.7 µM]
same,"ratio activity, negative = MMP loss",[3],inconclusive: 4.34% [at 39.1 µM]
NC1=NCC2c3ccccc3Cc3ccccc3N12 (centres undefined),Potency,[1],"inconclusive: 29.8 µM [activator, partial curve]"
same,Potency,[3],inactive
CC(C)=CCCC(C)CCO (centres undefined),Potency,[1],inactive
same,"ratio activity, negative = MMP loss",[3],inconclusive: -15.9% [at 95.3 µM]
OCCC(F)(F)C(F)(F)C(F)(F)C(F)(F)C(F)(F)C(F)(F)C(F)(F)C(F)(F)F,Potency,[1],"inconclusive: 77 µM [activator, partial curve, poor fit]"
same,Potency,[3],"inconclusive: 1.22 µM [rising, single point]"
CO[C@H]1C=CO[C@@]2(C)Oc3c(C)c(O)c4c(O)c(c(/C=N/N5CCN(C)CC5)c(O)c4c3C2=O)NC(=O)/C(C)=C\C=C[C@H](C)[C@H](O)[C@@H](C)[C@@H](O)[C@@H](C)[C@H](OC(C)=O)[C@@H]1C,Potency,[1],"inconclusive: 15.4 µM [rising, single point]"
same,Potency,[3],active: 10.6 µM and active: 24.5 µM and active: 11 µM
CCCC(C)c1ccccc1O (centres undefined),Potency,[1],inconclusive: 1.37 µM [activator]
same,Potency,[3],active: 30.6 µM
CN(C)CCN(Cc1ccccc1)c1ccccn1,Potency,[1],"inconclusive: 5.96 µM [rising, partial curve, poor fit]"
same,Potency,[3],"inconclusive: 4.73 µM [activator, single point]"
CC(C)(C)C1(CCc2ccc(Cl)cc2)CO1 (centres undefined),Potency,[1],"inconclusive: 2.43 µM [activator, single point]"
same,Potency,[3],active: 19.3 µM
CCCCCCCCCCCCCCCCOP(=O)([O-])OCC[N+](C)(C)C,Potency,[1],"inconclusive: 0.668 µM [falling, single point]"
same,Potency,[3],"inconclusive: 0.473 µM [activator, partial curve, poor fit]"
C[C@H](CS)C(=O)N1CCC[C@H]1C(=O)O,Potency,[1],inactive
same,"ratio activity, negative = MMP loss",[3],inconclusive: 36.1%
CC(=O)O[C@@H]1C(=O)O[C@@H]2[C@H]1OC(=O)[C@@H]2OC(C)=O,Potency,[1],"inconclusive: 0.298 µM [activator, single point]"
same,"ratio activity, negative = MMP loss",[3],inconclusive: 7.79%
Cc1c(-c2cccnc2)c2ccccc2n1CCCCC(=O)O,activation,[1],inconclusive: 2.42%
same,Potency,[3],"inconclusive: 24.3 µM [activator, partial curve]"
O=c1cccccc1O,activation,[1],inconclusive: -0.405% [at 95.1 µM]
same,Potency,[3],active: 3.93 µM
O=C(O)c1cccc(Cl)n1,Potency,[1],inactive
same,Potency,[3],inactive
CC(=O)CC(=O)Nc1ccccc1C,Potency,[1],inactive
same,Potency,[3],"inconclusive: 2.43 µM [rising, single point]"
O=C(Cl)c1cc(C(=O)Cl)cc(C(=O)Cl)c1,Potency,[1],"inconclusive: 77 µM [activator, partial curve, poor fit]"
same,Potency,[3],"inconclusive: 34.4 µM [inhibitor, partial curve, poor fit]"
Nc1ccccc1S(=O)(=O)c1ccccc1,Potency,[1],inactive
same,Potency,[3],"inconclusive: 24.3 µM [rising, partial curve]"
C[Si](C)(C)Cl,Potency,[1],"inconclusive: 26.4 µM [rising, single point]"
same,"ratio activity, negative = MMP loss",[3],inconclusive: -5.83%
